The text below walks through data of US20170204158A1 (Regeneron, published 2017).

Assay [1] concerns the target T1, human IL-33 (R&D Systems, # 3625-IL-010/CF) (human, UniProt O95760 112-270, biotinylated in the blocking ELISA of Example 3 (sites not given)).
T1 sequence (looked up): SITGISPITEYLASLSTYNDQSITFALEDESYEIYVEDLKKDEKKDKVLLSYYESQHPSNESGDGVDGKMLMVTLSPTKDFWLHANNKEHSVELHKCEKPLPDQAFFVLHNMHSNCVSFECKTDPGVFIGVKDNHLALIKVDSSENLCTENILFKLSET
The assay is described as follows: cell-based or functional assay.

The target in assay [2] is T2, mouse IL-33 (R&D Systems, # 3626-ML-010/CF) (mouse, UniProt Q8BVZ5 109-266).
T2 sequence (looked up): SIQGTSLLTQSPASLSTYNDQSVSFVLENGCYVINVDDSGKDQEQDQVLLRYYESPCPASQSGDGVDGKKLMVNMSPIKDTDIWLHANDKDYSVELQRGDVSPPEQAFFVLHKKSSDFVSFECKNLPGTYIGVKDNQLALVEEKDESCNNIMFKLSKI
The assay is described as follows: cell-based or functional assay.

Assay [3] has as its target T3, monkey IL-33 expressed with C-terminal hexahistidine tag (MfIL-33-6His) (cynomolgus monkey (M. fascicularis)).
T3 chain: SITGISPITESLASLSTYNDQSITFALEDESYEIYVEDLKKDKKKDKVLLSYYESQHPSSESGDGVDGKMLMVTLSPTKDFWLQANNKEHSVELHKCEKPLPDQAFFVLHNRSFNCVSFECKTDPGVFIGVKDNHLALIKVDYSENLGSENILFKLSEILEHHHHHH
The assay is described as follows: cell-based or functional assay.

Assay [4] deals with T1, human IL-33 (R&D Systems, # …). The assay is described as follows: SPR (Biacore T-200), 25 C; Fc fusion captured by anti-Fc antibody, IL-33 injected. As to the method: (§1) The Biacore sensor surface was first derivatized by amine coupling a polyclonal rabbit anti-mouse antibody (GE, # BR-1008-38) or with a monoclonal mouse anti-human Fc antibody (GE, # BR-1008-39) to capture IL-33 Trap and receptor proteins with a C-terminal mouse IgG2a Fc tag or a C-terminal human IgG1 Fc tag, respectively. Kinetic experiments were carried out in 0.01 M HEPES pH 7.4, 0.15 M NaCl, 3 mM EDTA, and 0.005% v/v Surfactant Tween-20 (HBST running buffer). Different concentrations of human IL-33, mouse IL-33 or MfIL-33-6His prepared in HBST running buffer (ranging from 60 nM to 27.4 pM, 3-fold dilutions, for Trap proteins and ranging from 60 nM to 0.25 nM, 3-fold dilutions, for ST2 receptor proteins) were injected over the captured IL-33 Trap and receptor protein surfaces at a flow rate of 50 μL/minute. Association of different IL-33 proteins to the different capture surfaces was monitored for 7 minutes for Trap proteins or 4 minutes for ST2 receptor proteins and their dissociation in HBST running buffer was monitored for 14 minutes for Trap proteins or 8 minutes for ST2 receptor proteins. Kinetic association (ka) and dissociation (kd) rate constants were determined by fitting the real-time binding sensorgrams to a 1:1 binding model using Scrubber 2.0c curve-fitting software. Binding dissociation equilibrium constants (KD) and dissociative half-lives (t½) were calculated from the kinetic rate constants as: […]
(Surface plasmon resonance follows binding to a sensor surface in real time, without labels.)

The target in assay [5] is T2, mouse IL-33 (R&D Systems, # …). The assay is described as follows: SPR (Biacore T-200), 25 C; Fc fusion captured by anti-Fc antibody, mouse IL-33 injected. As to the method: as §1
The target of assay [6] is T1, human IL-33 (R&D Systems, # …). The assay is described as follows: competition ELISA; antagonist pre-mixed with 20 pM biotin-hIL-33, binding to plate-coated human ST2-Fc. The method, then:
(§2) The ability of exemplary IL-33 antagonists of the invention to block human IL-33 (hIL-33) binding to the human ST2 receptor was measured using a competition sandwich ELISA. A portion of human ST2 protein ecto domain that was expressed with a C-terminal mouse Fc tag (SEQ ID NO:2) was coated at a concentration of 1 μg/mL in PBS buffer on a 96-well microtiter plate overnight at 4° C. […] Biotinylated hIL-33 protein (R&D systems, #3625-IL/CF) (biot-hIL-33) was added to achieve a constant final concentration of 20 pM to serial dilutions of IL-33 antagonists ranging from 0 to 100 nM. The mixture was incubated for 1 hour at room temperature (RT) before transfer to the hST2-hFc coated microtiter plates. After incubation for 1 hour at RT, the wells were then washed, and plate-bound biot-hIL-33 was detected with HRP-conjugated streptavidin (Thermo Scientific, # N200). All samples were developed with a TMB solution (BD biosciences, # 51-2607KC) to produce a colorimetric reaction and then quenched by acidification with 1M sulfuric acid before measuring absorbance at 450 nm on a Victor X5 plate reader (PerkinElmer). Data analysis was performed using a sigmoidal dose-response model within Prism™ software. […] The absorbance measured at the constant amount of hIL-33 on the dose curve was defined as 0% blocking and the absorbance with no added IL-33 was defined as 100% blocking. […]
Background: ELISA stands for enzyme-linked immunosorbent assay.

Assay [7] shares this target. The assay is described as follows: competition ELISA; antagonist pre-mixed with 20 pM biotin-hIL-33, binding to plate-coated human ST2-Fc; highest concentration tested. The method, then: as §2

B1: hST2-hFc (Fc fusion)
chain: KFSKQSWGLENEALIVRCPRQGKPSYTVDWYYSQTNKSIPTQERNRVFASGQLLKFLPAAVADSGIYTCIVRSPTFNRTGYANVTIYKKQSDCNVPDYLMYSTVSGSEKNSKIYCPTIDLYNWTAPLEWFKNCQALQGSRYRAHKSFLVIDNVMTEDAGDYTCKFIHNENGANYSVTATRSFTVKDEQGFSLFPVIGAPAQNEIKEVEIGKNANLTCSACFGKGTQFLAAVLWQLNGTKITDFGEPRIQQEEGQNQSFSNGLACLDMVLRIADVKEEDLLLQYDCLALNLHGLRRHTVRLSRKNPIDHHS[letters of human IgG1 Fc left out]
notes: also called first IL-33 antagonist; ST2 receptor protein
In general, Kd refers to the concentration at which binding is half-saturated. Broadly, the koff is the rate constant with which the complex falls apart. As a reminder, the kon is the second-order rate constant of association. As usually defined, the IC50 is the concentration that gives 50% inhibition. For B1, the “IC50 (M), inhibition of 5 pM human IL-33 activation of HEK293/hST2/NFkB-luciferase cells” value in assay [1] was 1e-11 M. In addition, in assay [2], the “IC50 (M), inhibition of 30 pM mouse IL-33 activation of HEK293/hST2/NFkB-luciferase cells” value was 1.1e-10 M. In addition, the “IC50 (M), inhibition of 5 pM monkey IL-33 activation of HEK293/hST2/NFkB-luciferase cells” value in assay [3] amounted to 4.6e-12 M. In assay [4], the “60 nM Human IL-33 Bound (RU)” value came to 25 RU, the equilibrium dissociation constant (Kd) was found to be 0.054 nM, the koff was 0.00032 s⁻¹ and the kon turned out to be 5.9e+06 M⁻¹ s⁻¹. Also, the t1/2 in assay [4] is 36 min. In addition, in assay [5], the “60 nM Mouse IL-33 Bound (RU)” value came out at 18 RU; the affinity, expressed as Kd, was 0.102 nM; the off-rate (koff) turned out to be 0.000423 s⁻¹; the kon was 4.1e+06 M⁻¹ s⁻¹. Besides, in assay [5], the t1/2 was determined as 27 min. In assay [6], this molecule displayed an IC50 of 0.0192 nM. Besides, the “% Maximum blocking” value in assay [7] stood at 99%.
